Test results: the supplement of paper PMC12217912
Some of the results follow. The full chains were built here from the parent and the listed change. Inactive controls read about 0.05.

B1: TEV protease; numbered along this chain (parent)
chain: MGESLFKGPRDYNPISSSICHLTNESDGHTTSLYGIGFGPFIITNKHLFRRNNGTLVVQSLHGVFKVKDTTTLQQHLVDGRDMIIIRMPKDFPPFPQKLKFREPQREERICLVTTNFQTKSMSSMVSDTSCTFPSGDGIFWKHWIQTKDGQCGSPLVSTRDGFIVGIHSASNFTNTNNYFTSVPKNFMELLTNQEAQQWVSGWRLNADSVLWGGHKVFMVKPEEPFQPVKEATQL

Variants of: B1
Experiment: raw area under fraction-flipped curve 0-4 h after induction (AUC4h, not background-subtracted), DNA-recorder readout of cleavage of the substrate (dimensionless); higher = more cleavage of the substrate by the protease variant
Conditions: temperature: 34 °C; time window: 0-4 h after rhamnose induction
Procedure: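 In vivo DNA recorder in E. coli TOP10(DE3) ΔrhaA at 34 °C. Each TEVp single-site mutant (parent TEVp 0) is paired with a single-site variant of the 7-mer TEVs (canonical ENLYFQ|S). The substrate sits between flexible linkers in a Bxb1-sfGFP-TEVs-SsrA fusion, so cleavage stabilises Bxb1 and speeds flipping of a recombination array, read by NGS. The value is the raw area under the fraction-flipped curve over 0-4 h after rhamnose induction (AUC4h), with ≥20 reads per time point. It is not background-subtracted; inactive controls average about 0.047.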
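Also: Bxb1 expression induced with 0.2% (w/v) L-rhamnose at OD600 near 0.5, cultures sampled hourly, flipped fraction per protease–substrate barcode pair counted by paired-end Illumina sequencing.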

| Variant | area with substrate EALYFQS | area with substrate ECLYFQS | area with substrate EELYFQS | area with substrate EHLYFQS | area with substrate EILYFQS | area with substrate EKLYFQS | area with substrate EQLYFQS | area with substrate ESLYFQS | area with substrate ETLYFQS | area with substrate EVLYFQS | area with substrate EWLYFQS | area with substrate EYLYFQS | area with substrate EDLYFQS | area with substrate EFLYFQS | area with substrate ELLYFQS | area with substrate EMLYFQS | area with substrate EPLYFQS | area with substrate ERLYFQS | area with substrate EGLYFQS |
| --- | --- | --- | --- | --- | --- | --- | --- | --- | --- | --- | --- | --- | --- | --- | --- | --- | --- | --- | --- |
| G37A | 0.111 | 0.118 | 0.12 | 0.0988 | 0.0925 | 0.12 | 0.117 | 0.104 | 0.0788 | 0.0882 | 0.0845 | 0.0905 |  |  |  |  |  |  |  |
| G37F | 0.0666 |  | 0.0813 | 0.0673 |  |  | 0.0764 | 0.0752 |  |  | 0.0699 | 0.0713 | 0.0664 | 0.068 | 0.0642 | 0.0911 | 0.0828 | 0.0762 |  |
| G37S | 0.0746 | 0.0767 |  |  | 0.0836 |  | 0.0965 | 0.0828 |  | 0.092 | 0.0786 |  |  |  | 0.0436 | 0.0823 | 0.0722 | 0.0746 |  |
| N52Q | 0.0871 |  | 0.0765 | 0.0911 | 0.0691 | 0.062 | 0.0791 | 0.094 | 0.0852 | 0.0926 |  |  |  | 0.0889 |  | 0.0629 | 0.0894 | 0.0378 | 0.094 |
| I42V | 0.124 | 0.101 |  | 0.126 | 0.0889 | 0.108 | 0.138 | 0.102 | 0.123 |  | 0.0995 |  | 0.0955 |  |  | 0.105 |  | 0.0978 |  |
| D69S | 0.094 | 0.0931 | 0.103 | 0.0826 | 0.0816 |  | 0.095 | 0.0804 | 0.0982 | 0.0845 | 0.0748 | 0.0829 |  | 0.111 | 0.0831 | 0.0962 |  | 0.0875 |  |
| R50C | 0.135 | 0.0964 | 0.134 | 0.122 |  | 0.123 | 0.119 | 0.134 |  | 0.193 | 0.105 | 0.104 |  |  | 0.162 |  |  |  | 0.125 |
| F38K | 0.0429 |  |  | 0.0578 | 0.0492 | 0.0512 | 0.0688 | 0.0593 | 0.0559 | 0.0624 | 0.0651 | 0.0833 | 0.0728 |  | 0.0618 | 0.0653 |  | 0.0658 |  |
| K68A | 0.122 | 0.0805 | 0.13 | 0.112 | 0.0847 |  | 0.117 | 0.137 |  | 0.0977 |  | 0.112 |  | 0.0966 | 0.101 | 0.129 |  | 0.101 | 0.0995 |
| K68Y | 0.128 | 0.113 |  |  | 0.0948 | 0.136 | 0.112 |  |  |  | 0.0935 | 0.0982 | 0.133 |  |  | 0.113 |  | 0.0923 |  |
| K68I | 0.11 | 0.0993 | 0.145 |  | 0.0815 | 0.095 | 0.104 | 0.0926 | 0.125 | 0.072 | 0.0732 |  |  | 0.0955 | 0.0872 |  | 0.115 | 0.0973 | 0.0863 |
| T55C | 0.105 | 0.11 | 0.139 | 0.0981 | 0.123 | 0.0739 | 0.121 | 0.102 | 0.105 |  |  | 0.13 |  |  | 0.101 | 0.101 |  | 0.101 | 0.0947 |
| V67A | 0.114 | 0.0832 |  | 0.0975 | 0.0866 | 0.0774 | 0.0726 | 0.101 |  | 0.0907 | 0.0877 | 0.0903 | 0.0853 |  |  | 0.102 | 0.108 |  |  |
